According to the supplement of paper PMC8728848:
Some of the results follow.

Assays:
Assay in all cases: glycan array binding signal (z-score within array); higher = stronger binding
Conditions in all cases: glycan notation: IUPAC condensed, linker removed
[1] = molecular target: Fuc(a1-2)Gal(b1-4)GlcNAc(b1-2)[Fuc(a1-2)Gal(b1-4)GlcNAc(b1-4)]Man(a1-3)[Fuc(a1-2)Gal(b1-4)GlcNAc(b1-2)Man(a1-6)]Man(b1-4)GlcNAc(b1-4)GlcNAc
Procedure, shortened: (§1)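 Arrays were curated from the Consortium for Functional Glycomics database, 3228 in total, and kept only where the protein sequence was available. Binding is expressed as a within-array Z-score. This score was averaged across arrays of the same protein sequence at different concentrations or buffers and across linkers, and negative values can be read as non-binding.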

[2] = molecular target: Fuc(a1-2)Gal(b1-4)GlcNAc(b1-3)Gal(b1-4)GlcNAc
Procedure, shortened: as §1

[3] = molecular target: Fuc(a1-2)Gal(b1-4)GlcNAc(b1-3)Gal(b1-4)GlcNAc(b1-2)Man(a1-3)[Fuc(a1-2)Gal(b1-4)GlcNAc(b1-3)Gal(b1-4)GlcNAc(b1-2)Man(a1-6)]Man(b1-4)GlcNAc(b1-4)GlcNAc
Procedure, shortened: as §1

[4] = molecular target: Fuc(a1-2)Gal(b1-4)GlcNAc(b1-3)Gal(b1-4)GlcNAc(b1-3)Gal(b1-4)GlcNAc
Procedure, shortened: as §1

[5] = molecular target: Fuc(a1-2)Gal(b1-4)GlcNAc(b1-3)GalNAc
Procedure, shortened: as §1

[6] = molecular target: Fuc(a1-2)Gal(b1-4)GlcNAc(b1-3)[Fuc(a1-2)Gal(b1-4)GlcNAc(b1-6)]GalNAc
Procedure, shortened: as §1

[7] = molecular target: Fuc(a1-2)Gal(b1-4)GlcNAc(b1-3)[Fuc(a1-3)[Gal(b1-4)]GlcNAc(b1-6)]Gal(b1-4)Glc
Procedure, shortened: as §1

[8] = molecular target: Fuc(a1-2)Gal(b1-4)GlcNAc(b1-6)GalNAc
Procedure, shortened: as §1

[9] = molecular target: Fuc(a1-2)Gal(b1-4)GlcNAc6S
Procedure, shortened: as §1

[10] = molecular target: Fuc(a1-2)Gal(b1-4)[Fuc(a1-3)]GlcNAc
Procedure, shortened: as §1

[11] = molecular target: Fuc(a1-2)Gal(b1-4)[Fuc(a1-3)]GlcNAc(b1-2)Man(a1-3)[Fuc(a1-2)Gal(b1-4)[Fuc(a1-3)]GlcNAc(b1-2)Man(a1-6)]Man(b1-4)GlcNAc(b1-4)GlcNAc
Procedure, shortened: as §1

[12] = molecular target: Fuc(a1-2)Gal(b1-4)[Fuc(a1-3)]GlcNAc(b1-2)Man(a1-3)[Fuc(a1-2)Gal(b1-4)[Fuc(a1-3)]GlcNAc(b1-2)Man(a1-6)]Man(b1-4)GlcNAc(b1-4)[Fuc(a1-6)]GlcNAc
Procedure, shortened: as §1

[13] = molecular target: Fuc(a1-2)Gal(b1-4)[Fuc(a1-3)]GlcNAc(b1-2)[Fuc(a1-2)Gal(b1-4)[Fuc(a1-3)]GlcNAc(b1-4)]Man(a1-3)[Fuc(a1-2)Gal(b1-4)[Fuc(a1-3)]GlcNAc(b1-2)Man(a1-6)]Man(b1-4)GlcNAc(b1-4)GlcNAc
Procedure, shortened: as §1

[14] = molecular target: Fuc(a1-2)Gal(b1-4)[Fuc(a1-3)]GlcNAc(b1-3)Gal(b1-4)[Fuc(a1-3)]GlcNAc
Procedure, shortened: as §1

[15] = molecular target: Fuc(a1-2)Gal(b1-4)[Fuc(a1-3)]GlcNAc(b1-3)Gal(b1-4)[Fuc(a1-3)]GlcNAc(b1-3)Gal(b1-4)[Fuc(a1-3)]GlcNAc
Procedure, shortened: as §1

[16] = molecular target: Fuc(a1-2)Gal(b1-4)[Fuc(a1-3)]GlcNAc(b1-3)GalNAc
Procedure, shortened: as §1

[17] = molecular target: Fuc(a1-2)Gal(b1-4)[Fuc(a1-3)]GlcNAc(b1-3)[Neu5Ac(a2-6)Gal(b1-4)GlcNAc(b1-6)]Gal(b1-4)Glc
Procedure, shortened: as §1

[18] = molecular target: Fuc(a1-2)Gal3S(b1-4)GlcNAc
Procedure, shortened: as §1

[19] = molecular target: Fuc(a1-2)Gal6S(b1-3)GlcNAc
Procedure, shortened: as §1

[20] = molecular target: Fuc(a1-2)Gal6S(b1-3)GlcNAc6S
Procedure, shortened: as §1

[21] = molecular target: Fuc(a1-2)Gal6S(b1-4)Glc
Procedure, shortened: as §1

[22] = molecular target: Fuc(a1-2)Gal6S(b1-4)Glc6S
Procedure, shortened: as §1

[23] = molecular target: Fuc(a1-2)Gal6S(b1-4)GlcNAc
Procedure, shortened: as §1

[24] = molecular target: Fuc(a1-2)[Gal(a1-3)]Gal
Procedure, shortened: as §1

[25] = molecular target: Fuc(a1-2)[Gal(a1-3)]Gal(b1-3)GalNAc
Procedure, shortened: as §1

[26] = molecular target: Fuc(a1-2)[Gal(a1-3)]Gal(b1-3)GalNAc(b1-3)Gal(a1-4)Gal(b1-4)Glc
Procedure, shortened: as §1

[27] = molecular target: Fuc(a1-2)[Gal(a1-3)]Gal(b1-3)GlcNAc
Procedure, shortened: as §1

[28] = molecular target: Fuc(a1-2)[Gal(a1-3)]Gal(b1-3)GlcNAc(b1-2)Man(a1-3)[Fuc(a1-2)[Gal(a1-3)]Gal(b1-3)GlcNAc(b1-2)Man(a1-6)]Man(b1-4)GlcNAc(b1-4)GlcNAc
Procedure, shortened: as §1

[29] = molecular target: Fuc(a1-2)[Gal(a1-3)]Gal(b1-3)GlcNAc(b1-2)Man(a1-3)[Fuc(a1-2)[Gal(a1-3)]Gal(b1-3)GlcNAc(b1-2)Man(a1-6)]Man(b1-4)GlcNAc(b1-4)[Fuc(a1-6)]GlcNAc
Procedure, shortened: as §1

[30] = molecular target: Fuc(a1-2)[Gal(a1-3)]Gal(b1-3)GlcNAc(b1-3)GalNAc
Procedure, shortened: as §1

B1: Siglec-F (Mus musculus), Q920G3 (protein)
chain: MRWAWLLPLLWAGCLATDGYSLSVTGSVTVQEGLCVFVACQVQYPNSKGPVFGYWFREGANIFSGSPVATNDPQRSVLKEAQGRFYLMGKENSHNCSLDIRDAQKIDTGTYFFRLDGSVKYSFQKSMLSVLVIALTEVPNIQVTSTLVSGNSTKLLCSVPWACEQGTPPIFSWMSSALTSLGHRTTLSSELNLTPRPQDNGTNLTCQVNLPGTGVTVERTQQLSVIYAPQKMTIRVSWGDDTGTKVLQSGASLQIQEGESLSLVCMADSNPPAVLSWERPTQKPFQLSTPAELQLPRAELEDQGKYICQAQNSQGAQTASVSLSIRSLLQLLGPSCSFEGQGLHCSCSSRAWPAPSLRWRLGEGVLEGNSSNGSFTVKSSSAGQWANSSLILSMEFSSNHRLSCEAWSDNRVQRATILLVSGPKVSQAGKSETSRGTVLGAIWGAGLMALLAVCLCLIFFTVKVLRKKSALKVAATKGNHLAKNPASTINSASITSSNIALGYPIQGHLNEPGSQTQKEQPPLATVPDTQKDEPELHYASLSFQGPMPPKPQNTEAMKSVYTEIKIHKC
[1]
  glycan array binding signal (z-score): -0.129
[2]
  glycan array binding signal (z-score): -0.13
[3]
  glycan array binding signal (z-score): -0.079
[4]
  glycan array binding signal (z-score): -0.124
[5]
  glycan array binding signal (z-score): -0.105
[6]
  glycan array binding signal (z-score): 0.009
[7]
  glycan array binding signal (z-score): -0.151
[8]
  glycan array binding signal (z-score): -0.066
[9]
  glycan array binding signal (z-score): -0.129
[10]
  glycan array binding signal (z-score): -0.122
[11]
  glycan array binding signal (z-score): -0.085
[12]
  glycan array binding signal (z-score): -0.117
[13]
  glycan array binding signal (z-score): -0.13
[14]
  glycan array binding signal (z-score): -0.127
[15]
  glycan array binding signal (z-score): -0.118
[16]
  glycan array binding signal (z-score): 0.013
[17]
  glycan array binding signal (z-score): -0.156
[18]
  glycan array binding signal (z-score): -0.15
[19]
  glycan array binding signal (z-score): -0.161
[20]
  glycan array binding signal (z-score): 0.045
[21]
  glycan array binding signal (z-score): -0.123
[22]
  glycan array binding signal (z-score): -0.114
[23]
  glycan array binding signal (z-score): -0.09
[24]
  glycan array binding signal (z-score): -0.114
[25]
  glycan array binding signal (z-score): -0.116
[26]
  glycan array binding signal (z-score): -0.149
[27]
  glycan array binding signal (z-score): -0.115
[28]
  glycan array binding signal (z-score): -0.116
[29]
  glycan array binding signal (z-score): -0.093
[30]
  glycan array binding signal (z-score): -0.118
